Reference: PubChem BioAssay AID2546 (National Center for Advancing Translational Sciences (NCATS), 2010)
Hit rate of the full screen: of about 310,000 compounds, about 11,000 (3.5%) were called active. This list was built around the results that the source calls inconclusive (neither active nor inactive); the mix of calls is not that of the screen. Calls follow the shape of the dose curve; as a rule, active = well fitted inhibition curve with a large enough effect; inconclusive = small, poorly fitted or top-dose-only effect, or effect the other way; inactive = flat fitted curve, though single readings scatter. No potency is given beside an inconclusive call; the fits are too rough.

Assay: VP16 counterscreen qHTS for inhibitors of ROR gamma transcriptional activity;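 also: Gal4-VP16 expression switched on by copper sulfate through the metallothionein promoter; nearly all actives have a fitted effect of over 50% in size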
Details: Drosophila S2 Gal4-VP16 UAS-luciferase, luminescence, 20 h; activity, negative = inhibition: at 53.6 µM (top of the series)
% is scaled to controls: 0 for no effect and ±100 for the full control effect; potency is read from the fitted curve at half-maximal effect; tags tell the direction and shape of the fitted curve.

Row | SMILES | Potency | activity, negative = inhibition
1 | O=C(CC1Nc2ccccc2NC1=O)Nc1ccccc1 (centres undefined) | active: 5.01 µM | 
2 | Cc1sc2nc(CN(C(=O)NCc3ccccc3)C3CCCC3)[nH]c(=O)c2c1C | inconclusive [inhibitor, single point] | 
3 | O=C(NC1=NCCS1)c1cc(-c2ccc(-c3ccccc3)cc2)nc2ccccc12 | active: 5.01 µM | 
4 | Cc1cccc(C(=O)NC(=S)NNC(=O)c2ccc(Cl)cc2)c1 | inconclusive [inhibitor, single point] | 
5 | O=c1c2cc(N3CCOCC3)ccc2[nH]c(=S)n1Cc1ccccc1Cl | inconclusive [inhibitor, full curve, poor fit] | 
6 | COc1ccc(Cn2c(=O)[nH]c3cc(C(=O)Nc4ccc(N5CCN(C)CC5)cc4)ccc32)cc1 |  | inactive: -5.32%
7 | CCCc1ccc(Oc2c(-c3ccc(O)c(C)c3O)n[nH]c2C)cc1 | inconclusive [inhibitor, single point] | 
8 | COc1ccc2[nH]cc(/C=C(/C#N)S(=O)(=O)c3ccccc3)c2c1 | inconclusive [inhibitor, single point] | 
9 | Cc1ccc(-c2c(C(=O)N/N=C/c3sccc3C)nnn2-c2nonc2N)cc1 | active: 5.62 µM | 
10 | Cc1ncc([N+](=O)[O-])n1S(=O)(=O)c1cc(Cl)ccc1Cl |  | inactive: 4.64%
11 | O=c1cc(-c2cccc(-c3ccc(C(F)(F)F)cc3)c2)c2cc3c(cc2o1)OCO3 |  | inactive: -5.58%
12 | Cc1oc2c(c1C(=O)c1ccc(Cl)cc1)C(=O)C(=O)c1ccccc1-2 | active: 6.31 µM | 
13 | C=CCn1c(COc2ccccc2OC)nc2ccccc21 | inconclusive [inhibitor, single point] | 
14 | CC1CCCCN1CCCNC(=O)c1ccc(NC(=O)C2=CSCCO2)cc1 (centres undefined) |  | inactive: 3.36%
15 | S=C(NCc1ccccc1)NNc1ccccc1 | active: 3.16 µM | 
16 | Cc1ccc(/C=c2\sc3nc(-c4ccco4)nn3c2=O)o1 | inconclusive [inhibitor, single point] | 
17 | C=CCNC(=S)Nc1cc(Cl)ccc1OC | inconclusive [inhibitor, single point] | 
18 | O=C(CSc1nnnn1-c1ccccc1)c1ccco1 | inconclusive [activator, single point] | 
19 | COc1ccc(NC(=O)C2CCN(S(=O)(=O)c3ccc(N4CCCC4=O)cc3)CC2)c(OC)c1 | inconclusive [inhibitor, single point] | 
20 | Cc1ccc2nc(/C(C#N)=C/c3ccc(-c4ccccc4C(=O)O)o3)[nH]c2c1 |  | inactive: -4.51%
21 | OCCOCCn1c(-c2ccccc2)nc(=S)c2c1CCCC2 |  | inactive: 0.745%
22 | O=C(O)CCCN1C(=O)/C(=C/c2ccncc2)SC1=S | active: 10 µM | 
23 | COCCCNC(=O)c1ccc2c(=O)n(C3CCCC3)c(=S)[nH]c2c1 | inconclusive [inhibitor, single point] | 
24 | O=[N+]([O-])c1ccc(O)c2cccnc12 |  | inactive: -22.4%
25 | O=C(CNC(=O)c1ccccc1)OCC(=O)N1c2ccccc2Sc2ccccc21 |  | inactive: -19.4%

Row | SMILES | Potency | activity, negative = inhibition
26 | O=C(O)C1C2C=CC(O2)C1C(=O)Nc1ccccc1C(F)(F)F (centres undefined) | inconclusive [inhibitor, single point] | 
27 | COc1ccc(CN=Nc2cc(C)nc(NS(=O)(=O)c3ccccc3Cl)n2)cc1 |  | inactive: -4.08%
28 | CCNC(=S)N/N=C/c1cn(Cc2ccc(F)cc2)c2ccccc12 | active: 1.78 µM | 
29 | O=C(COc1cccc(Cl)c1)NNC(=S)Nc1ccccc1 | active: 1 µM | 
30 | CC(C)OC(=O)CSc1n[nH]c(-c2cccnc2)n1 | inconclusive [inhibitor, single point] | 
31 | Cc1nc2sc(-c3ccccc3)cc2c(=O)n1N | inconclusive [inhibitor, partial curve] | 
32 | CC(C)c1ccc(/C=N/NC(=O)c2c(Cl)cnn2C)cc1 | inconclusive [inhibitor, single point] | 
33 | COc1ccc(S(=O)(=O)CC2(O)CCN(C(=O)C(C)(C)C)CC2)cc1 |  | inactive: -9.68%
34 | CN(C(=O)CSc1nnc(N)s1)c1c(N)n(Cc2ccccc2)c(=O)[nH]c1=O | inconclusive [inhibitor, full curve, poor fit] | 
35 | COc1cccc(/C=C2/SC(=S)N(CCCC(=O)Nc3ccc(O)cc3)C2=O)c1 | active: 0.355 µM | 
36 | CCc1cc(C(=O)N2CCCC(N3CCN(c4cccc(C(F)(F)F)c4)CC3)C2)n(C)n1 (centres undefined) | inconclusive [inhibitor, single point] | 
37 | COc1ccccc1C(=O)NCC(=O)N/N=C/c1cc(Br)ccc1OC(=O)/C=C\c1ccco1 | active: 7.08 µM | 
38 | COc1ccc(-n2cc(C(=O)Nc3cc([N+](=O)[O-])ccc3OC)c3ccccc3c2=O)cc1 |  | inactive: -22.4%
39 | CSc1ccccc1NC(=O)C1C2CCC(C2)C1C(=O)O (centres undefined) |  | inactive: 2.09%
40 | CCOC(=O)C1(Cc2ccccc2C(F)(F)F)CCN(CC(O)CO)CC1 (centres undefined) |  | inactive: -11.7%
41 | S=c1[nH]nc(-c2cccnc2)n1Cc1ccccc1 | inconclusive [inhibitor, partial curve] | 
42 | S=c1[nH]nc(-c2ccco2)n1/N=C/c1ccc(Cl)cc1 | active: 3.98 µM | 
43 | O=C(O)c1ccc(N/N=C/c2ccc(-c3cc(Cl)ccc3Cl)o2)cc1 | inconclusive [inhibitor, full curve] | 
44 | N#CCCn1nc(-c2ccc(Cl)cc2)cc1Nc1ccccc1NC(=O)C(F)(F)F | inconclusive [inhibitor, single point] | 
45 | Cc1oc(C)c2c(=O)ccc3c(c12)OC(N)=C(C#N)C3c1ccccc1 (centres undefined) | inconclusive [activator, single point] | 
46 | COc1cc(OC)c(NC2=CC(=O)C(=O)c3ccccc32)cc1Cl | inconclusive [inhibitor, single point] | 
47 | Cc1cc(C(=O)NC2CCCCC2C)c2ccccc2n1 (centres undefined) |  | inactive: -3.68%
48 | O=C(N/N=C/c1cccs1)c1cccnc1 |  | inactive: -25%
49 | CC1CCc2c(C(=O)NCCN3CCOCC3)csc2C1 (centres undefined) | inconclusive [inhibitor, partial curve] | 
50 | CCn1c(C)cs/c1=N\C(=S)Nc1ccccc1C | active: 5.62 µM | 

Row | SMILES | Potency | activity, negative = inhibition
51 | Cc1c(N=C/C=C/c2ccccc2)cnn1C | inconclusive [inhibitor, single point] | 
52 | O=C(CCc1ccc(S(=O)(=O)NCc2ccccc2)cc1)N1CCN(Cc2ccc3c(c2)OCO3)CC1 | inconclusive [inhibitor, single point] | 
53 | Cc1ccc(NC(=O)c2ccc3c(c2)CCN3S(C)(=O)=O)cc1C | inconclusive [activator, full curve] | 
54 | C=CCOc1nc2c(c(=O)n(C)c(=O)n2C)n1Cc1ccccc1Cl | inconclusive [inhibitor, single point] | 
55 | Cc1ccc2nc(Cl)c(C3CC(c4cccs4)=NN3C(=O)CCCC(=O)O)cc2c1 (centres undefined) |  | inactive: -2.18%
56 | O=C(Nc1ccccc1)c1ccc2nc(-c3ccco3)c(-c3ccco3)nc2c1 | inconclusive [inhibitor, single point] | 
57 | O=C(c1cc(-c2ccc(Br)cc2)n[nH]1)N1CCN(C(=O)c2ccccc2Br)CC1 |  | inactive: -8.53%
58 | Cc1c(Cl)c([N+](=O)[O-])nn1CCCC(=O)Nc1cccc(Cl)c1 | inconclusive [inhibitor, single point] | 
59 | COc1cccc(Cn2c(=O)c(-c3cccc(C#N)c3)nc3cnc(OC)nc32)c1 |  | inactive: -5.1%
60 | COc1ccc(NC(=O)c2ccco2)c([N+](=O)[O-])c1 | inconclusive [activator, full curve] | 
61 | C/C(=N\Nc1nncc2ccccc12)c1cccc(OC(F)F)c1 | inconclusive [inhibitor, single point] | 
62 | O=C(NC(=S)Nc1ccc(CN2CCOCC2)cc1)c1cccc([N+](=O)[O-])c1 | inconclusive [inhibitor, single point] | 
63 | O=C(O)c1ccc(COc2ccc3ccccc3c2/C=C2/NC(=O)N(c3ccccc3)C2=O)cc1 | inconclusive [inhibitor, single point] | 
64 | COc1ccc(OC)c(NC(=O)c2ccc(S(=O)(=O)N3CCN(C)CC3)cc2)c1 |  | inactive: -3.48%
65 | COc1cc(/C=C2/CC(C)OC2=O)c([N+](=O)[O-])cc1OC (centres undefined) |  | inactive: 0.9%
66 | COc1ccc(NC(=O)CNS(=O)(=O)c2ccc(Cl)cc2)cc1OC | inconclusive [inhibitor, single point] | 
67 | CCOC(=O)c1cnc(-n2nc(C)cc2C)nc1NCc1ccccc1 | active: 2.51 µM | 
68 | COC(=O)c1sccc1NC(=O)/C=C/c1c(Cl)cccc1Cl | inconclusive [inhibitor, full curve, poor fit] | 
69 | COc1ccc(/C=C\c2nc(=O)c3ccccc3o2)cc1 | inconclusive [inhibitor, single point] | 
70 | CCCCS(=O)(=O)N1CN(S(=O)(=O)CCCC)C2NC(=O)NC21 (centres undefined) | inconclusive [inhibitor, full curve] | 
71 | CC(=O)c1cn(CCOc2ccc(F)cc2)c2ccccc12 | inconclusive [inhibitor, single point] | 
72 | COc1ccc(CN2C3CCC2CC(NC(=O)c2cc(OC)c(OC)c(OC)c2)C3)cc1 (centres undefined) |  | inactive: 7.62%
73 | COc1cc(C=O)ccc1OCCCOc1ccccc1[N+](=O)[O-] | inconclusive [inhibitor, partial curve] | 
74 | CC1CC(C)CN(C(=S)Nc2ccc3nc4n(c(=O)c3c2)CCCCC4)C1 (centres undefined) | inconclusive [inhibitor, full curve, poor fit] | 
